Assay results as given in PMC12040169 (PLOS Biology, 2025).
The list shows a part of the results.

These molecules were tested on T1, C. trachomatis L2/434/Bu expressing GFP (CTL2-GFP). Conditions: total inclusion area; 28.5 h, 10 µM; inhibitor.
T1 construct: L2/434/Bu GFP intracellular growth in HeLa cells
Parameters: species or system HeLa; C. trachomatis total inclusion area by high-content imaging, normalised to DMSO
In short: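 Post-fluorescence-read fixation, DNA staining with Hoechst and high-content imaging; GFP inclusion area and number per well, and nuclei counts, used as proxies for bacterial growth and host viability.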

Row | SMILES | % of control remaining
1 | O=C(NC(=S)N1C[C@@H]2C[C@@H](C1)c1cccc(=O)n1C2)c1ccco1 [CBK288492] | 102.103
2 | CCOC(=O)C(CNC(=O)c1cnc(C)c(Br)c1Cl)Cc1ccccc1 (stereo not shown) [CBK305247] | 8.01
3 | O=CN1C2CCC1c1cnc3cc(-c4cccc(F)c4)nn3c1C2 (stereo not shown) [CBK282269] | 86.003
4 | Cc1ccc(C(=O)O)cc1NC(=O)C1CCCCC1C(=O)O (stereo not shown) [CBK263679] | 99.1974
5 | Cc1cccn2c(CN3CCC(O)CC3)c(C(=O)N3CCCCC3)nc12 [CBK307639] | 68.3301
6 | Fc1ccc(-c2cccc(N3CCN(c4ccccn4)CC3)n2)cc1Cl [CBK036877] | 92.1786
7 | COc1cccc(NC(=O)CN2CCC(NC(=O)c3cccs3)CC2)c1 [CBK305800] | 47.7446
8 | Cc1nnc(CS(=O)(=O)Cc2csc(C(C)(C)C)n2)n1C1CC1 [CBK305489] | 52.3281
9 | O=C(c1ccc(=O)[nH]n1)N1C2CCC1CC(c1ccc(F)cc1)C2 (stereo not shown) [CBK283737] | 102.822
10 | CC(=O)NCc1cccc(-c2cc(C(=O)Nc3ccc4c(c3)OCCO4)cnc2O)c1 [CBK149871T] | 98.4359
11 | CCOc1cc(S(=O)(=O)NCCCN2CCOCC2)c(C)cc1C [CBK268764] | 107.398
12 | CSc1cc(C)c2c(c1)COC1(CCN(CC3CC3)CC1)O2 [CBK061383] | 110.6
13 | COc1ccc(N2CCN(c3cncc(-c4ccc(C(N)=O)cc4)n3)CC2)cc1OC [CBK065820] | 112.368
14 | COc1ccc(OC(=O)c2ccc3nonc3c2)cc1 [CBK083571] | 98.5808
15 | N#CCCCN1CCC(Oc2nccnc2OCc2ccc(F)cc2)CC1 [CBK153643] | 104.578
16 | O=C(Nc1ccc2cc[nH]c2c1)c1cccnc1 [CBK160053] | 103.82
17 | CCNC(=O)N[C@H]1CO[C@H]2[C@@H]1OC[C@@H]2Nc1nccc(-c2cccc(F)c2)n1 [CBK289536] | 107.953
18 | O=C(C1=C(O)C(=O)N(CCCn2ccnc2)C1c1ccncc1)c1cccs1 (stereo not shown) [CBK111017] | 101.201
19 | CC(C)C(C(=O)O)N(C)C(=O)OCc1ccccc1 (stereo not shown) [CBK286593] | 66.9285
20 | Cc1nnc(CCn2cnc3cccnc3c2=O)s1 [CBK307125] | 97.9097
21 | CCc1nc(CNc2ccc(NC(C)=O)cc2Cl)cs1 [CBK305103] | 50.4465
22 | CN(CC(=O)O/N=C(\N)c1ccc(I)cc1)S(=O)(=O)c1cc(Cl)ccc1Cl [CBK268389] | 95.589
23 | O=C(CCSc1nc(-c2ccco2)cc(C(F)(F)F)n1)N1CCN(c2ccccn2)CC1 [CBK267626] | 84.2486
24 | Nc1ncc(-c2cccc3ncccc23)nc1NC1CCOCC1 [CBK063852] | 88.1861
25 | O=C(O)CC(CN1C(=O)c2ccccc2C1=O)C(=O)c1ccccc1 (stereo not shown) [CBK287221] | 97.182
26 | COc1ccc(-n2c(SCC(=O)c3ccccc3)nc(O)c(Cc3ccccc3)c2=O)cc1 [CBK263398] | 91.6303
27 | O=C(c1nccs1)C1CCN(C(=O)C2CCCCC2)CC1 [CBK284175] | 68.4087

Row | SMILES | % of control remaining
28 | O=C(O)[C@H]1CN(C(=O)c2cccs2)C[C@@H]1c1ccc(F)cc1 [CBK283734] | 79.3177
29 | CC(=O)[C@H]1C[C@@H](CC(=O)Nc2cc3cccnc3nc2Cl)C1(C)C [CBK091351] | 105.371
30 | Cn1ncc2c(NCCCC3CCOC3)nc(C(C)(C)C)nc21 (stereo not shown) [CBK307363] | 100.006
31 | Cc1nc(CC(=O)N2CCC[C@@H]3[C@H]2CCCCc2ccccc2OCC(=O)N3C)cs1 [CBK292091] | 96.5025
32 | COc1ccc(N2CCN(c3cc(-c4cccc([N+](=O)[O-])c4)ncn3)CC2)cc1OC [CBK091031] | 113.898
33 | CCN(CC)CC(O)Cn1ccc(-c2cccs2)n1 (stereo not shown) [CBK005967] | 89.4183
34 | O=c1c(-c2nncn2-c2ccccc2)coc2c(O)c(O)ccc12 [CBK266889] | 117.166
35 | CC(C)(C)OC(=O)N(c1cncc(N2CCNCC2)n1)[C@@H]1CCOc2ccccc21 [CBK172251G] | 27.485
36 | O=C(COc1ccc(-c2ccccc2)cc1Cl)N1CCN(C(=O)C2CC2)CC1 [CBK295640] | 86.1038
37 | NC(=O)c1cccc(CN2CCOC3(CCN(C(=O)OCc4ccccc4)CC3)C2)c1 [CBK161100T] | 72.9679
38 | COc1ccc(CN2CCC(c3ncc(C(=O)Nc4ccc(F)cc4)c(C)n3)CC2)cc1 [CBK285629] | 65.7402
39 | COCc1cc(O)nc(Cc2c(Cl)cccc2Cl)n1 [CBK022389] | 51.2581
40 | CCOc1ccc(-c2cncc(Nc3ccc4c(c3)OC(F)(F)C(F)(F)O4)n2)cc1 [CBK065728] | 91.6724
41 | O=C(NCCCc1ccc(F)cc1)c1cccc(N2CCCC2=O)c1 [CBK282684] | 111.517
42 | NS(=O)(=O)c1cnc(Cl)c(Br)c1 [CBK034079] | 18.5539
43 | CCc1ccc(C(O)CNC2CCN(C3CCCCC3)CC2)cc1 (stereo not shown) [CBK304604] | 8.973
44 | O=C(O)CC(CNC(=O)Cc1c[nH]c2ccccc12)c1ccc(Cl)cc1 (stereo not shown) [CBK286598] | 87.1086
45 | O=C(NC1CC2CCC(C1)N2Cc1ccccc1)c1cccc(Cl)c1 (stereo not shown) [CBK116291] | 76.5518
46 | Cc1ccc(S(=O)(=O)Nc2nc3ccccc3nc2Nc2ccc(C(=O)O)cc2)cc1C [CBK300516] | 69.1555
47 | CN1CCN(C(=O)CN(Cc2ccc(Cl)cc2)S(=O)(=O)c2ccc(Br)cc2)CC1 [CBK265771] | 99.6096
48 | c1ccc(CNC2CCc3[nH]c4ccccc4c3C2)cc1 (stereo not shown) [CBK091587T] | 100.362
49 | Cc1nc(N)nc(NCCC2CCCN(C)C2)c1Cl (stereo not shown) [CBK307445] | 62.5586
50 | CC(=O)N1C[C@@H]2CCCCN(CC(=O)NC3CC3)[C@@H]2C1 [CBK285508] | 87.6375
51 | CCCc1nn(CC(=O)NC(C)C)c(=O)c2cc3ccsc3n12 [CBK284147] | 77.8588
52 | Cc1cc(=O)oc2cc(SCc3ccc(SC(F)(F)F)cc3)ccc12 [CBK002897] | 80.9831
53 | O=C(Nc1ccc(S(=O)(=O)Nc2nccc(/C=C/c3ccc(Cl)cc3)n2)cc1)c1ccc(Br)cc1 [CBK263500] | 110.356
54 | CN1CCN(CC2(Cn3ccnc3-c3ccc(C(=O)O)cc3)CC2)CC1 [CBK307641] | 89.9332

Row | SMILES | % of control remaining
55 | CC(=O)Nc1ccc(C(=O)N2CCCC2c2cccc(Cc3ccc(Cl)cc3)n2)cc1 (stereo not shown) [CBK286144] | 67.935
56 | CCOC(=O)C1=C(C)NC(=O)NC1c1cccs1 (stereo not shown) [CBK086430] | 26.5
57 | Cc1ccc(S(=O)(=O)Nc2ccc3c(ccn3CCC3CCN(C(=O)OC(C)(C)C)CC3)c2)cc1Cl [CBK172990] | 97.7829
58 | COc1ccc(C(=O)N2CC[C@H]3NC(=O)N(Cc4ccccc4)C(=O)[C@H]32)cc1 [CBK289293] | 109.842
59 | COc1cccc(N2N=C3NNC(N)=C3N2)c1 [CBK093665] | 75.4992
60 | N#CCCN(C(=O)NCc1c(Cl)cccc1Cl)C1CCCCC1 [CBK156371] | 96.1097
61 | O=S(=O)(Cc1noc([C@@H]2C[C@@H](O)CN2Cc2ccc(F)cc2)n1)c1ccc(F)cc1 [CBK288831] | 118.846
62 | CN(C)CCNC(=O)Cn1c(-c2cccs2)cc2cccnc21 [CBK282555] | 103.762
63 | CC1(C)C(CC(=O)NC2CCCCC2)CC1C(=O)NC1CCCCC1 (stereo not shown) [CBK009260] | 87.3932
64 | COc1ccc(OC)c(-c2nc(Nc3ccc(Cl)cc3Cl)sc2CC(=O)O)c1 [CBK264175] | 97.4576
65 | Cn1cncc1CN(Cc1ccccc1)C1CC(C)(C)NC(C)(C)C1 [CBK283226] | 95.0899
66 | COc1ccc(CC(=O)NC(c2nnc3ccccn23)C(C)C)cc1 (stereo not shown) [CBK304607] | 57.0152
67 | O=C1C=C([C@@H]2O[C@H](CO)[C@H](O)C2O)C(=O)N1 (stereo partly shown) [CBK201255] | 108.22
68 | CN(CC1COc2ccccc2O1)C(=O)CC1CCN(C(=O)CC2CCCCC2)CC1 (stereo not shown) [CBK286265] | 116.438
69 | O=C(Nc1ccccc1)c1ccc(COc2ccc3ccccc3c2)o1 [CBK265897] | 84.8454
70 | Cc1ccc(NS(=O)(=O)c2cc3c(OC4CCNCC4)nccc3s2)cc1 [CBK046309C] | 95.1476
71 | NS(=O)(=O)c1ccc(NC(=S)NNC(=S)Nc2ccc(F)cc2F)cc1 [CBK267102] | 112.34
72 | Fc1ccc(CN2CC3CCCC(C2)C3N2CCOCC2)cc1F (stereo not shown) [CBK282270] | 86.5006
73 | COc1ccc(C(=O)Nc2ccc3c(c2)C(=O)N(CCC(=O)O)C3=O)cc1 [CBK265921] | 118.784
74 | Cc1ccc(CN2CCC(O)(Cn3ccc4ncccc43)CC2)o1 [CBK284751] | 128.429
75 | O=C(Cn1c[n+]([N-][N+](=O)[O-])cn1)Nc1ncc(Br)cc1Br [CBK262342] | 120.609
76 | Cc1ccc2c(c1)C(Oc1cncc(N3CCNCC3)n1)CCO2 (stereo not shown) [CBK172334G] | 69.0149
77 | CN(c1ccccc1)c1cc(-c2cccc(O)c2)nc2ccnn12 [CBK037121] | 82.2171
78 | COc1ccc(CCNC(=O)N2CCN(C3CCN(C)CC3)CC2)cc1OC [CBK155897] | 110.92
79 | CCc1[nH]nc(C)c1Cc1c(Cl)cccc1Cl [CBK093598] | 85.8022
